Experimental data published in patent US11000038B2, “Pyridone compounds and agricultural and horticultural fungicides containing the same as active ingredients” (priority 2017, dated 2021).

What was measured:
[1] = test system: tomato late blight fungi (Phytophthora infestans); format: in vivo; settings: spray treatment of tomato plants; control value=100{1-(n/3)}
[2] = test system: cucumber anthracnose fungi (Colletotrichum orbiculare); assay: Test Example H: cucumber anthracnose, spray treatment of cucumber plants; settings: 250 ppm spray, 2.5 ml/pot, cucumber Sagami Hanjiro; 6 to 10 days from inoculation
[3] = test system: rice blast fungi (Magnaporthe grisea); format: in vivo; settings: spray treatment of rice plants; control value=100{1-(n/3)}

O=c1c(Cl)cn(-c2cccnc2Cl)c(-c2c(F)cc(F)cc2F)c1Br [Compound 34]
Test F control value class (tomato late blight) [1]: H (H shows the control value of more than 50%)
Test H control value class (cucumber anthracnose) [2]: H (H shows the control value of more than 50%)
Test A control value class (rice blast) [3]: H (H shows the control value of more than 50%)

O=c1c(Cl)cn(-c2cccnc2Cl)c(-c2c(F)cc(F)cc2F)c1Cl [Compound 35]
Test F control value class (tomato late blight) [1]: H (H shows the control value of more than 50%)
Test H control value class (cucumber anthracnose) [2]: H (H shows the control value of more than 50%)
Test A control value class (rice blast) [3]: H (H shows the control value of more than 50%)

O=c1c(Br)cn(-c2cccnc2Cl)c(-c2c(F)cc(F)cc2F)c1Cl [Compound 36]
Test F control value class (tomato late blight) [1]: L (L shows the control value of 50% or less)
Test H control value class (cucumber anthracnose) [2]: H (H shows the control value of more than 50%)
Test A control value class (rice blast) [3]: H (H shows the control value of more than 50%)

O=c1c(Br)cn(-c2ccccc2Br)c(-c2c(F)cc(F)cc2F)c1Cl [Compound 37]
Test F control value class (tomato late blight) [1]: L (L shows the control value of 50% or less)
Test H control value class (cucumber anthracnose) [2]: H (H shows the control value of more than 50%)
Test A control value class (rice blast) [3]: H (H shows the control value of more than 50%)

COc1cc(F)c(-c2c(Br)c(=O)c(Cl)cn2-c2cccnc2OC)c(F)c1 [Compound 39]
Test F control value class (tomato late blight) [1]: L (L shows the control value of 50% or less)
Test H control value class (cucumber anthracnose) [2]: H (H shows the control value of more than 50%)
Test A control value class (rice blast) [3]: H (H shows the control value of more than 50%)

COc1cc(F)c(-c2c(Cl)c(=O)c(Br)cn2-c2cccnc2OC)c(F)c1 [Compound 40]
Test F control value class (tomato late blight) [1]: L (L shows the control value of 50% or less)
Test H control value class (cucumber anthracnose) [2]: H (H shows the control value of more than 50%)
Test A control value class (rice blast) [3]: H (H shows the control value of more than 50%)

CC(C)C(C)n1cc(Cl)c(=O)c(Cl)c1-c1c(F)cc(F)cc1F (stereo not drawn) [Compound 41]
Test F control value class (tomato late blight) [1]: L (L shows the control value of 50% or less)
Test H control value class (cucumber anthracnose) [2]: H (H shows the control value of more than 50%)
Test A control value class (rice blast) [3]: H (H shows the control value of more than 50%)

CC(C)C(C)n1cc(Cl)c(=O)c(Br)c1-c1c(F)cc(F)cc1F (stereo not drawn) [Compound 42]
Test F control value class (tomato late blight) [1]: L (L shows the control value of 50% or less)
Test H control value class (cucumber anthracnose) [2]: H (H shows the control value of more than 50%)
Test A control value class (rice blast) [3]: H (H shows the control value of more than 50%)

CC(C)C(C)n1cc(Br)c(=O)c(Cl)c1-c1c(F)cc(F)cc1F (stereo not drawn) [Compound 43]
Test F control value class (tomato late blight) [1]: L (L shows the control value of 50% or less)
Test H control value class (cucumber anthracnose) [2]: H (H shows the control value of more than 50%)
Test A control value class (rice blast) [3]: H (H shows the control value of more than 50%)

O=c1c(Br)cn(-c2ccccc2Br)c(-c2c(F)cc(F)cc2F)c1Br [Compound 44]
Test F control value class (tomato late blight) [1]: L (L shows the control value of 50% or less)
Test H control value class (cucumber anthracnose) [2]: H (H shows the control value of more than 50%)
Test A control value class (rice blast) [3]: H (H shows the control value of more than 50%)

O=c1c(Cl)cn(-c2ccccc2Br)c(-c2c(F)cc(F)cc2F)c1Cl [Compound 45]
Test F control value class (tomato late blight) [1]: L (L shows the control value of 50% or less)
Test H control value class (cucumber anthracnose) [2]: H (H shows the control value of more than 50%)
Test A control value class (rice blast) [3]: H (H shows the control value of more than 50%)

O=c1c(Cl)cn(-c2ccccc2Br)c(-c2c(F)cc(F)cc2F)c1Br [Compound 46]
Test F control value class (tomato late blight) [1]: L (L shows the control value of 50% or less)
Test H control value class (cucumber anthracnose) [2]: H (H shows the control value of more than 50%)
Test A control value class (rice blast) [3]: H (H shows the control value of more than 50%)

CC(C)C(C)n1cc(Br)c(=O)c(Br)c1-c1c(F)cc(F)cc1F (stereo not drawn) [Compound 47]
Test F control value class (tomato late blight) [1]: L (L shows the control value of 50% or less)
Test H control value class (cucumber anthracnose) [2]: H (H shows the control value of more than 50%)
Test A control value class (rice blast) [3]: H (H shows the control value of more than 50%)

O=c1c(Cl)cn(Cc2ccccc2)c(-c2c(F)cc(F)cc2F)c1Cl [Compound 48]
Test F control value class (tomato late blight) [1]: L (L shows the control value of 50% or less)
Test H control value class (cucumber anthracnose) [2]: H (H shows the control value of more than 50%)
Test A control value class (rice blast) [3]: H (H shows the control value of more than 50%)

COc1cc(F)c(-c2c(Br)c(=O)c(Cl)cn2C(C)C(C)C)c(F)c1 (stereo not drawn) [Compound 50]
Test F control value class (tomato late blight) [1]: L (L shows the control value of 50% or less)
Test H control value class (cucumber anthracnose) [2]: H (H shows the control value of more than 50%)
Test A control value class (rice blast) [3]: H (H shows the control value of more than 50%)

COc1cc(F)c(-c2c(Cl)c(=O)c(Br)cn2C(C)C(C)C)c(F)c1 (stereo not drawn) [Compound 51]
Test F control value class (tomato late blight) [1]: L (L shows the control value of 50% or less)
Test H control value class (cucumber anthracnose) [2]: H (H shows the control value of more than 50%)
Test A control value class (rice blast) [3]: L (L shows the control value of 50% or less)

COc1cc(F)c(-c2c(Cl)c(=O)c(Cl)cn2C(C)C(C)C)c(F)c1 (stereo not drawn) [Compound 52]
Test F control value class (tomato late blight) [1]: L (L shows the control value of 50% or less)
Test H control value class (cucumber anthracnose) [2]: H (H shows the control value of more than 50%)
Test A control value class (rice blast) [3]: H (H shows the control value of more than 50%)

COc1cc(F)c(-c2c(Br)c(=O)c(Br)cn2C(C)C(C)C)c(F)c1 (stereo not drawn) [Compound 53]
Test F control value class (tomato late blight) [1]: L (L shows the control value of 50% or less)
Test H control value class (cucumber anthracnose) [2]: H (H shows the control value of more than 50%)
Test A control value class (rice blast) [3]: H (H shows the control value of more than 50%)

O=c1c(Br)cn(-c2ccccc2Cl)c(-c2c(F)cccc2F)c1Cl [Compound 54]
Test F control value class (tomato late blight) [1]: L (L shows the control value of 50% or less)
Test H control value class (cucumber anthracnose) [2]: H (H shows the control value of more than 50%)
Test A control value class (rice blast) [3]: H (H shows the control value of more than 50%)

O=c1c(Br)cn(-c2ccccc2Cl)c(-c2c(F)cccc2F)c1Br [Compound 55]
Test F control value class (tomato late blight) [1]: L (L shows the control value of 50% or less)
Test H control value class (cucumber anthracnose) [2]: H (H shows the control value of more than 50%)
Test A control value class (rice blast) [3]: H (H shows the control value of more than 50%)

O=c1c(Br)cn(Cc2ccccc2)c(-c2c(F)cc(F)cc2F)c1Cl [Compound 56]
Test F control value class (tomato late blight) [1]: L (L shows the control value of 50% or less)
Test H control value class (cucumber anthracnose) [2]: L (L shows the control value of 50% or less)
Test A control value class (rice blast) [3]: H (H shows the control value of more than 50%)

O=c1c(Br)cn(Cc2ccccc2)c(-c2c(F)cc(F)cc2F)c1Br [Compound 57]
Test F control value class (tomato late blight) [1]: L (L shows the control value of 50% or less)
Test H control value class (cucumber anthracnose) [2]: H (H shows the control value of more than 50%)
Test A control value class (rice blast) [3]: H (H shows the control value of more than 50%)

COc1cc(F)c(-c2c(Cl)c(=O)c(Cl)cn2Cc2ccccc2)c(F)c1 [Compound 58]
Test F control value class (tomato late blight) [1]: H (H shows the control value of more than 50%)
Test H control value class (cucumber anthracnose) [2]: H (H shows the control value of more than 50%)
Test A control value class (rice blast) [3]: H (H shows the control value of more than 50%)

O=c1c(Cl)cn(Cc2ccccc2Cl)c(-c2c(F)cc(F)cc2F)c1I [Compound 89]
Test F control value class (tomato late blight) [1]: L (L shows the control value of 50% or less)
Test H control value class (cucumber anthracnose) [2]: H (H shows the control value of more than 50%)
Test A control value class (rice blast) [3]: H (H shows the control value of more than 50%)

O=c1c(Br)cn(-c2ccccc2Br)c(-c2c(F)cccc2F)c1Cl [Compound 90]
Test F control value class (tomato late blight) [1]: L (L shows the control value of 50% or less)
Test H control value class (cucumber anthracnose) [2]: H (H shows the control value of more than 50%)
Test A control value class (rice blast) [3]: H (H shows the control value of more than 50%)

O=c1c(Br)cn(-c2ccccc2Br)c(-c2c(F)cccc2F)c1Br [Compound 91]
Test F control value class (tomato late blight) [1]: L (L shows the control value of 50% or less)
Test H control value class (cucumber anthracnose) [2]: H (H shows the control value of more than 50%)
Test A control value class (rice blast) [3]: H (H shows the control value of more than 50%)

O=c1c(Cl)cn(-c2ccccc2Br)c(-c2c(F)cccc2F)c1Cl [Compound 92]
Test F control value class (tomato late blight) [1]: L (L shows the control value of 50% or less)
Test H control value class (cucumber anthracnose) [2]: H (H shows the control value of more than 50%)
Test A control value class (rice blast) [3]: H (H shows the control value of more than 50%)

O=c1c(Cl)cn(-c2ccccc2Br)c(-c2c(F)cccc2F)c1Br [Compound 93]
Test F control value class (tomato late blight) [1]: L (L shows the control value of 50% or less)
Test H control value class (cucumber anthracnose) [2]: H (H shows the control value of more than 50%)
Test A control value class (rice blast) [3]: H (H shows the control value of more than 50%)

O=c1c(Cl)cn(CCc2ccccc2)c(-c2c(F)cc(F)cc2F)c1Cl [Compound 94]
Test F control value class (tomato late blight) [1]: L (L shows the control value of 50% or less)
Test H control value class (cucumber anthracnose) [2]: L (L shows the control value of 50% or less)
Test A control value class (rice blast) [3]: L (L shows the control value of 50% or less)

O=c1c(Cl)cn(CCc2ccccc2)c(-c2c(F)cc(F)cc2F)c1Br [Compound 95]
Test F control value class (tomato late blight) [1]: L (L shows the control value of 50% or less)
Test H control value class (cucumber anthracnose) [2]: L (L shows the control value of 50% or less)
Test A control value class (rice blast) [3]: L (L shows the control value of 50% or less)
